From PubChem BioAssay AID1645887 (National Center for Advancing Translational Sciences (NCATS), 2021)
Several values for one entry are separate records, joined by “and”; a condition that tells them apart may be missing. Equal entries are not always repeated. Out of some 16,000 compounds screened, about 40 (0.2%) were called active. Another 1% or so got no clear call; they are omitted. Calls follow the shape of the dose curve; as a rule, active = well fitted activation curve with a large enough effect; inconclusive = small, poorly fitted or top-dose-only effect, or another doubt; inactive = no such curve, though single readings can be large or run the other way. The list shows a part of the results.

Target: Rap guanine nucleotide exchange factor 4 (Homo sapiens) (UniProt Q8WZA2)
UniProt Q8WZA2, sequence (Q8WZA2 whole entry, looked up): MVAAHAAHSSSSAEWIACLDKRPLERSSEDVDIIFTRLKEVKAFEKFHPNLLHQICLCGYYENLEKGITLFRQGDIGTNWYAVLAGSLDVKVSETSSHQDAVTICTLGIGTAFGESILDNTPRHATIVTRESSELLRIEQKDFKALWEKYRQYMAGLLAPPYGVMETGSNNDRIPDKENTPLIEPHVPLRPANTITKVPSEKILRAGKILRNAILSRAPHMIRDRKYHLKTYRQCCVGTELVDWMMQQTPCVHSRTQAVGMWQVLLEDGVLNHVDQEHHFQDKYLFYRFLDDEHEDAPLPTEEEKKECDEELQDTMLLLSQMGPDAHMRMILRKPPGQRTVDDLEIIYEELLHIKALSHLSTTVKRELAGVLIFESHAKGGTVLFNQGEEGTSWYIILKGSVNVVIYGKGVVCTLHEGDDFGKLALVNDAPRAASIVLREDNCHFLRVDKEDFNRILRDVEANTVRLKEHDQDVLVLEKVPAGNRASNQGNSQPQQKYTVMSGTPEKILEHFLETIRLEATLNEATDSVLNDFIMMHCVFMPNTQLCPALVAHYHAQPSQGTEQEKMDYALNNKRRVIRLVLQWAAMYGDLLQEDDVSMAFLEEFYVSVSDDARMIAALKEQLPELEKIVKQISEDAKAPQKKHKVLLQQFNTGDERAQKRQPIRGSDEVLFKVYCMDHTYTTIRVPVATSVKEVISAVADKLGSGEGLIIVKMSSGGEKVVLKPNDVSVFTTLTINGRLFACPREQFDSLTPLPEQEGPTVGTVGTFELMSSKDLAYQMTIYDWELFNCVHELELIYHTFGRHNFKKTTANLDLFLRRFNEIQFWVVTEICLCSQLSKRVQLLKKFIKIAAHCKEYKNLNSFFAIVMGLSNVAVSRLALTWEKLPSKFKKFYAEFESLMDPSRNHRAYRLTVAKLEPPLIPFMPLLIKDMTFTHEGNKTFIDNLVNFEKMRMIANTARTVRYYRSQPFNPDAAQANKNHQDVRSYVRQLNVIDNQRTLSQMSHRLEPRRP
Experiment: Validation qHTS for agonist of cAMP-regulated guanine nucleotide exchange factor 4 (EPAC2);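 also: exchange makes BODIPY-GDP fluorescence drop when released from Rap1B; series mostly up to about 150 µM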
Details: EPAC2 Rap1B BODIPY-GDP exchange, fluorescence; activation: active compounds read high
Summary of the method: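 Signal normalized against 6.5 mM cAMP as agonist control. Mix of EPAC2 (100 nM), RAP1B-BODIPY-GDP (250 nM) and GDP (50 uM) was read kinetically at 480/540 nm, every 5 min over 30 min, after 5 min room-temperature incubation with compound.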
% is scaled to controls: 0 for no effect and ±100 for the full control effect.

activation, inactive:
COc1ccccc1CN1CCC(n2cc(C(=O)N3CCCCC3)nn2)CC1 -9.1%
CC(C)=CCC1=C(O)c2ccccc2C(=O)C1=O -10.2% and -29.1%
CC(C)c1cc(C(=O)N2CCOc3ccc(CN4CCC(Oc5cccnc5)CC4)cc3C2)n[nH]1 -9.24%
COc1ccc(OC)c(-c2ccnc(-n3ncc(C(=O)NC(C)(C)CO)c3C3CC3)n2)c1 -46.8%
CC(=O)OC1CCC2(C)C3CC(=O)C4(C)C(CC5OC6(CCC(C)CO6)C(C)C54)C3CC[C@H]2C1 (some centres not stated) -13.5%
COc1ccccc1OCC1CNC(=O)O1 (configuration not stated) -8.73%
COC(=O)C1CCCCN1Cc1ccc2c(c1)CN(C(=O)c1csc(-c3cccs3)n1)CCO2 (configuration not stated) -8.89%
O=S(=O)(O)c1cc(I)c(O)c2ncccc12 0.219%
c1cc2c3c(c1)c1c(n3CCNC2)CCCC1 6.46%
O=C(NC(c1cccnc1)C(F)(F)F)c1cnn(-c2nccc(-c3cccs3)n2)c1C1CC1 (configuration not stated) 4.02%
Cc1cc2nccc(/C=C/c3ccc(N(C)C)cc3)c2cc1C -14.9%
COc1cccc(Nc2ncc3nc(-c4cc(F)cc(F)c4)c(=O)n(C[C@H]4CCCO4)c3n2)c1 3.07%
COc1ccc(Oc2ncc3nc(-c4cccs4)c(=O)n(Cc4cccc(OC)c4)c3n2)cc1 -3.58%
Cc1nc2cnc(Nc3ccccc3)nc2n(CCC#N)c1=O 9.65%
COc1cccc(-c2cc(NCc3ccc(OC)cc3OC)ncn2)c1 -2.55%
O=C(Nc1cccc(F)c1)N1CCCC2(CCN(C(=O)c3ccco3)CC2)C1 0.776%
COc1ccc2[nH]cc(CCNc3ncnc4ccc(-c5ccc6c(c5)OCO6)cc34)c2c1 -12.4%
COc1ccc(NC(=O)N2CC3(CCNCC3)C2)cc1 5.67%
CC(=O)Oc1ccc(C2(c3ccc(OC(C)=O)cc3)C(=O)Nc3ccccc32)cc1 -14.4% and -25.5%
COc1ccccc1N1CCN(CCCCNC(=O)c2ccc3ccccc3c2)CC1 9.76%
CCC1NC(=O)c2cc(S(N)(=O)=O)c(Cl)cc2N1 (configuration not stated) -3.98%
COc1ccc(CN2CCC(=O)N(CCO)CC2)cc1OC 3.19%
Cc1ncc(COP(=O)(O)O)c(C=O)c1O -7.62%
CN(C)C(=O)c1ccc(-c2cncnc2NCCN2CCOCC2)cc1 -21.1%
Brc1cc(Br)c[n+](CCc2ccccc2)c1 -26%
COc1ccc(-c2ccc(C(=O)NCC3Cc4cccc(-c5nc(C)cnc5C)c4O3)o2)cc1 (configuration not stated) -1.59%
Cc1cccc(CNc2ncnc3ccc(-c4cccnc4)cc23)c1 -19.6%
COc1cc2[nH]c(=O)[nH]c(=O)c2cc1OC -13.9%
CC(C)NC(=O)N1CCC2(CC1)CCN(C(=O)c1ccncc1)CC2 -5.96%
CC(O)(P(=O)(O)O)P(=O)(O)O -17.4%
CCCCCCCCCCCCCC(=O)OC(C)C -4.88%
Cn1cc(CNC2CCN(c3cccc(NC(=O)c4cccnc4)c3)CC2)cn1 -4.23%
COc1cc(=O)n2c(c1C(=O)N(C)Cc1nccs1)CCN(Cc1c(F)ccc(F)c1F)CC2 -10.3%
O=C(O[C@H]1[C@H](Cc2ccccc2)NS(=O)(=O)[C@H]2C[C@@H]3C=C[C@]12O3)c1ccc([N+](=O)[O-])cc1 -23.6%
CO/N=C(\C(=O)N[C@@H]1C(=O)N2C(C(=O)O)=C(CSc3nc(=O)c(O)nn3C)CSC12)c1csc(N)n1 (some centres not stated) -0.0986%
C(=C\c1ccnc2ccccc12)/c1ccc2ccccc2n1 -17%
Cn1c(-c2ccncc2)nc2cc(C(=O)N3CCCC3c3nccs3)cc(NC(=O)C3CCC3)c21 (configuration not stated) 1.79%
COC(C)(C)CCCC(C)C/C=C/C(C)=C/C(=O)O (configuration not stated) -7.06%
COc1cccc(CCNc2ncnc3sc(C(=O)N4CCOCC4)c(C)c23)c1 1.29%
c1ccc(-n2cnnn2)cc1 -5.07%
COc1ccccc1N1CCN(CCn2c(=O)[nH]c3c([nH]c4ccccc43)c2=O)CC1 -30.8% and 4.22% and -8.95%
Cn1c(=O)c2c(ncn2CCO)n(C)c1=O -9% and -0.365%
Cc1cccc2cc(CN(CC3CCCO3)C(=O)c3ccccc3F)c(N(C)C)nc12 (configuration not stated) -4.14%
c1csc(CNc2ncnc3ccc(-c4ccoc4)cc23)c1 -11.4%
CC(O)(COc1ccccc1)c1ccc2c(c1)CN(Cc1ccccn1)CCO2 (configuration not stated) 9.44%
COC(=O)CC1C(C)(C)C(O)C2CC3=C4CC(O)OC(c5ccoc5)[C@]4(C)CCC3[C@@]1(C)C2=O (some centres not stated) -15.2%
Cc1ccc2nccnc2c1 -24.5%
COc1ccccc1CNc1ccnc(-c2ccc(C(=O)N(C)C)cc2)n1 -2.12%
COc1cc(-c2noc(C)c2/C=C/c2ccc(OC(C)=O)cc2)cc(OC)c1OC -7.04%
Nc1[nH]c(=S)[nH]c(=O)c1N -21.8%
CC(CCc1ccc2c(c1)OCO2)NN (configuration not stated) 6.97%
COc1ccc(C2NC(=S)N3C(c4ccc(OC)c(OC)c4)NC(=S)N23)cc1OC (configuration not stated) -13.4%
COc1ccc(NC(=O)N2CCC3(CC2)CCN(C(=O)c2cccn2C)CC3)cc1 -15.3%
CC(=O)/C(C)=N/O -9.3%
O=C(NCC1(N2CCOCC2)CCCC1)c1cnn(-c2nccc(-c3ccco3)n2)c1C1CC1 -16.1%
O=C1CC[C@@H](C(=O)N[C@H]2C[C@@H]2c2ccccc2)N1 -4.14%
COC(=O)C1=C(C(=O)OC)[C@]2([C@@H]3C/C=C\CN[C@@H](Cc4ccccc4)C(=O)N3Cc3ccccc3)C=C[C@H]1O2 -13%
